The other results are listed elsewhere or left out. At the low end of the ranking the order means little. Measured with an extract: partners may take part in the binding.

The target in the experiment is T1, HNF4alpha2 (COS-7 nuclear extract) (UniProt P41235).
T1 sequence: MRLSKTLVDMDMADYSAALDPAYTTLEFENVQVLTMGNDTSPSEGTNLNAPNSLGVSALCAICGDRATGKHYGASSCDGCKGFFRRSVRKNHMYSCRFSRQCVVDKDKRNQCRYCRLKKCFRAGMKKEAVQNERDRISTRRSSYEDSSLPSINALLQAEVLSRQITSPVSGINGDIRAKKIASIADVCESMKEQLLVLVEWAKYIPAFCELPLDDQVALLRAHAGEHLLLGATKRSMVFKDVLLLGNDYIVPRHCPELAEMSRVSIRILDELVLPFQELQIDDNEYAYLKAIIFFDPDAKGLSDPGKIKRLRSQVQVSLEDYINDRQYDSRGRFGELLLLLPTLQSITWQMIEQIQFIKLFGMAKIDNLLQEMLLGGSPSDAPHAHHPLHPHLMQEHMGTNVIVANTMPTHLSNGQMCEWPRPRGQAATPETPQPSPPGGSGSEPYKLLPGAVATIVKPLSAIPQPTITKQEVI
Put plainly: protein-binding microarray. The following applies: COS-7 nuclear extract on double-stranded Agilent 4x180k PBM; binding buffer, salt, pH and temperature not given; high values mean tight binding; double strand, one strand shown; sequences stand for … in …GCCTAGGGAGATTAGAGTATCGGTCGA
CACTGACTAAAGCAAGTCAGATGGCCAAAG: the binding signal (log2 normalized intensity) is -1.08.
The value for CACAGAAGTCTTTCCCTGCCAGTTCCATGT was 1.17.
Then AAGGCAGAGCACTAAATCTCTCCTAGAGAA, with -1.33.
The value for TTGGTTGTTCTGTTTAACAGAGATTTGCAG was 0.558; that for ACATAGCAGGCATACCAGGCAGAGGGTTAA was -1.04; that for CCCTAGACACCGGGTGAAGGTTAAATAGCT was -0.99.
Consider ATTCCCTTCCCCTCCTTAGGAAAGAGACAT, for which the binding signal (log2 normalized intensity) was determined as 2.36.
For TCCTTCTTGCTTAGGATAGGGTCAGTCTTT, the binding signal (log2 normalized intensity) turned out to be 2.25.
As for AGCAGTGACTTGAGAGGCCAGTTTCTCCAC, the binding signal (log2 normalized intensity) was -1.03.
On to ATACTGGATAACCTTCCAGACAGAGAGGTC, for which the binding signal (log2 normalized intensity) came out at 1.
The value for AGCATGGTCCACAGCTTTGGGCATACAAAA was -1.15; that for AAATCTGCCCAACCTTTGCCCCTGGAGGGA was 3.74; that for AGCAAGAGCACAAGAACAAAAACTGTTTCT was -1.22.
Then CCCTCCTCCTTTTTTTCCCCTCCCTCAGCT, with 3.64; and AGAAGTAAGAAATCAGGAGCAAAGGTTGGG, with 1.57; and AGCAGGTGTTCACCTTCAGTCACACTGTTT, with 0.0787.
Then AGGGGGCAGGAGCCCAAGAAGCGTCAGTTG, with -1.09.
Regarding AATCGAATTGTGAAACTCAGAATCAGGGGA, the binding signal (log2 normalized intensity) was -1.18.
The value for TCTCGCTGCTTCGGCCTTTGACCTCGTGAT was 6.52; that for CTTTGTTCCCTGGCTCACTGACTCAGTCTT was -1.02; that for TAAAGCCCTGGGGTAATAAAAGTGTACAAA was 0.211.
The value for GAGGGAGACAACCTTTGGTCACTTGTAAGA was 2.82; that for CAGAATTGCTGCTCCCCCTCCCAAATCGGT was 4.41; that for CCTTTGGTGCCTCTTTTTTCTTGTTGACTT was 2.44.
Then CTGGAGGGACTGTGATGAAGGCAGAAAGAA, with -1.02.
On to GGCCTCAGGTTCAAAGGGCTTAATCTTTCC, for which the binding signal (log2 normalized intensity) was determined as 1.49.
The value for ACAGCACCTCTCTGATGCCATGATAAGCAG was -1.12.
Then CATAAACACAGACACACATGAGCTAGTGCT, with -1.16; and GGGTTCACATTCCAGCTCTGTGACTTTACC, with 1.42; and AGCCCCACAGAGCAAAGGTCATGCATAGAA, with 4.52.
As to ACAACCCCTACTGTACCCTATGCACCCCAC, the binding signal (log2 normalized intensity) worked out at 4.27.
Then TAAGGAGGTAGAGTCTAAGGCTAAAACATC, with -1.17.
On to GGCTCAGCATTCTGAGGGCCTCCAATAGGG, for which the binding signal (log2 normalized intensity) was -1.29.
Then GCCCAACTCGGAGGACTGAGCCCGCTCCAC, with -1.23.
The value for GGGCATTACTTGCTGGAGAAAGAGGGGAAG was -0.991; that for GAGTTTAAATGACCTCTGCCCTTCCACCCA was 4.71; that for ATGAAAGCGCCTTGCTTTCTGCCCAGGGAG was -0.941.
Turning to GAGATAAGATCAGTATAGTTAGGGCCTTGC, the binding signal (log2 normalized intensity) is 0.213.
Then TATCAGTGTAACTATTACTGGACAGCCAGC, with -1.06.
Then ATAGGCTGGGATGATTTCAGCTTATAAATC, with -1.12; and TTGCAAGTCTGAGGCTGCTCTCTGTCCCTG, with 0.522.
Turning to GTCTGCAGCTGAACCATATTCTTTACATTT, the binding signal (log2 normalized intensity) worked out at 0.995.
The value for TGAGAGAGCCCCTGTGATACAACGGTTCAA was 0.456.
Then TGTGGCTGCCAAGACACAGAGAAAAAGAAG, with -1.04; and GGTCATCAGGACTCTAACTGGCTTTAAGAG, with -0.791.
The value for GTGATTAGTGCAAGAATCCAAGAATTCGAT was -1.13; that for GAGGGCGAGGCCGAGCCTCAGCCGGGAGAG was -1.04.
Consider CTGAGAGTCACTGCCTTATCGTATTCTTAT, for which the binding signal (log2 normalized intensity) turned out to be 0.822.
Take CAGAGATTGGAATCTCTGCACAGCATAGAA: the binding signal (log2 normalized intensity) is -1.23.
Turning to GAGGAGCACAGAAGGAGAGAGAGGGAGAGT, the binding signal (log2 normalized intensity) was -1.1.
Then AAAGAATAACGTTACAGTGGAGAAACCTGA, with -1.22; and CTTATCAGCAGGAGACCTGAAACTAGACCA, with -1.1; and CACTAATCTGTCAGAAAACCCACGCCCACC, with 2.46.
The value for GGTTGTAAAATGAGGTCAGCATGGTGGGAG was 0.99; that for CACATTTCAGGAATGTTTTATGTGCTCCAT was 1.57; that for AATTGAGATAAACATGAAACAGTCACAGTT was -1.07.
Then GCCCCGAGATAACCCCTCTCCAAGCCAGAA, with 4.09.
Turning to AGGGAGGAAGGCAACCACAGCCTCTGCATT, the binding signal (log2 normalized intensity) is -1.18.
In the case of ATATCAACTGGACAAATTCCTGGGAACTGC, the binding signal (log2 normalized intensity) was -1.11.
Take TTCATAGGTCCTCTTGGAAGATGCCTTTTT: the binding signal (log2 normalized intensity) is 1.55.
The value for ATGAAGATGCAGAACAAGGTAGCCACAGAA was -1.04; that for TCTCTGTTGACCACCTGCCCCAGGAATGCC was 2.29; that for TTCACTTGCCACATTTATTGTGAGATTACG was 1.23.
In the case of AAGTCTCTAGATGGGGTTGAGCAGACTAAA, the binding signal (log2 normalized intensity) is -0.224.
Then CCTCCCCTCCCCCTTGGTGTTTAAACACAT, with 4.78; and AACCACAGAAATGCCGCTAATGTATTTCGG, with -0.619.
As to ATGACCAGCAGGGTGACCAGTGGACCATGA, the binding signal (log2 normalized intensity) was 2.17.
Then GGACCGCAGAGGCTGGAGCAGGCCATGTGC, with -1.28; and GTGGACTTTCACCTCCACCAGATAGCAAGG, with 3.25; and TTGCCCAGAGGGGTTCCTCAGTAAATGCTG, with -1.17.
Then GTCAGAGTGCTGCATGCAAAAAGGCTGACC, with 1.41; and GAAAAGTGTTTGCCAAAGGATATCTTTAAT, with 0.994; and GCGGAGAGGGTTCTCACTCCTCTATCAGTA, with -1.08.

The values above are taken from PMC10726135.
